# Measurements as given in paper PMC10726135.
# This is one part of the list. At the low end of the ranking the order means little. Measured with an extract: partners may take part in the binding.
# Target: T1, HNF4alpha8 (COS-7 nuclear extract) (UniProt P41235-5)
# T1 sequence: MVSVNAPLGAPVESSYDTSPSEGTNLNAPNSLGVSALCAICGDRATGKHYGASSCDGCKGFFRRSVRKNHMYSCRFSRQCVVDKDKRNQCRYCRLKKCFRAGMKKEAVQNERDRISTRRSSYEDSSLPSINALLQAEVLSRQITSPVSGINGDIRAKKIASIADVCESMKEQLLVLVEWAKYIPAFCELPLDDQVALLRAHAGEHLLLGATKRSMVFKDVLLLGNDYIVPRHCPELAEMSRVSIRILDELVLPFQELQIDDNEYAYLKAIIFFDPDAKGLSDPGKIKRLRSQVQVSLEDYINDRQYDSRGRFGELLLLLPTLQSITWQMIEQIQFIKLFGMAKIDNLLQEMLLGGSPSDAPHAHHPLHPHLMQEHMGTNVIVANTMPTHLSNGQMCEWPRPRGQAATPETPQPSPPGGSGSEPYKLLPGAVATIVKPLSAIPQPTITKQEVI
# Assay: protein-binding microarray
# Details: COS-7 nuclear extract on double-stranded Agilent 4x180k PBM; binding buffer, salt, pH and temperature not given; high values mean tight binding; double strand, one strand shown; sequences stand for … in …GCCTAGGGAGATTAGAGTATCGGTCGA
row,Sequence,binding signal (log2 normalized intensity)
1,TCACCATATCCCTGAGAGGCCAGTTTGACC,3.28
2,AGCTGGAGGAGACCTTTGGATATCATATCA,2.69
3,TGGACTTTGATCCTGATGACTGCAGAGCTT,6.16
4,GTAACCACCTCTCTGGGTGGTTCGAGACCC,0.212
5,GCGCAGGCGCAGTCCTCTCTCGCGAGAGCC,-1.24
6,GTATTTTTTGAATGACAGTGTCAGGACCTT,1.65
7,GGCTGAGCATCACCAGTGCAGCTGACCTAC,2.24
8,TGGAATGTCTTTGGGTGGAGGGGAGGTTAT,1.18
9,ACATTCTTCCTCACATCTCTTCCTTGCTTT,0.292
10,TCTTCCTTCATCTGGAGACAAATGCTTTTG,0.978
11,ATCCAGCACAGTGCTGGTACATAGCAGGGG,-0.951
12,AATGTTTGTAGGGACTTTGACCCCTAAAAC,9.59
13,TCACAACCTCCCTTTGAAGGAGCCACTGGT,-0.869
14,AGTGTGGGGTGACTGACTTAACCCTTGCCT,2.27
15,CAGTCCATTTCAGTGAACTTTTCAATGCTC,1.29
16,TGAACAGCTCTTCTTGCCAGCTGGCCTCCT,-0.103
17,ATGTGCCCTTTGTACCTGGGGCAAACATCA,5.3
18,CATCCCTCTCCCGCCTCTTGGCCTCCCCCT,5.62
19,AAAGGTCAAGAGAATTACAAACAGCCCTGA,-1.39
20,CCTGCACCTGGAGCCCTTAGGGTCAATGGG,3.4
21,GTTTCTTTCCCTGGGGTCAATAGTTGTGTA,3.69
22,GACAAGAGTGACCTCTGGTCATTCAATGTT,3.81
23,GTGACTTCCTTCCAAAGGTCACAGTAGGGA,4.99
24,GTTATTTGCTAAAACTGGGCTGGGTAAGCC,-0.00424
25,TGTTTGCTTTTCTTATTTACCGAAATGTGG,2.1

row,Sequence,binding signal (log2 normalized intensity)
1,AGGTGACCCTTGAGCTAAGTCCCAAGGGAT,2.23
2,TGGTACTTTGAGCCAGTAAGTCTAGGGGTG,1.23
3,TACATTTTGCTCTGTTGTGTCAAAGGTCAC,7
4,GAGAGAAAAAATCAGAGAGCAAAGGTGATC,2.63
5,TGAAGAAACCAACCCTGCCAAAGGTTAAAA,2.48
6,TCCCTCATTAGTAACTCCAGAGATAAGATA,-1.4
7,ATGGAAGTTTGCCCTGGTTGAGGAATTTGG,1.54
8,TATTACTAAGTGAGAAAAGAACCATGAGAG,-1.29
9,TTAAAGACCAAAGATCACAGTGAAGGTGAA,1.56
10,GATTACATGGGAGATAGAGCAGTGGAAGAC,-1.23
11,TTGATTCCATGCTGATAATGGAATTGACAT,1.07
12,AGAGAAGTTGATTGCACCCTTCCCTAAGAT,0.522
13,TGTGAACCCAGGCAAAGTCCAGAAATAGCA,1.97
14,AGATCTCAGTTGGTCCAAGGTACATGTCTC,2.75
15,AAAGCCCTTTTTGGAATGTGTTTGCATGAC,1.79
16,GAAGCCCAGCAGCTCCAGGAGACGTAGAGA,-1.35
17,CTGACTAGGACAGAGCAGATGAAAGTAGTT,-1.43
18,CTCTGTGAAGTGGAGATAATAGGAGATAAT,-0.251
19,CTGCACTTTTGTGCTCTGTACCCGGCTGCC,1.32
20,GAATTTCATTTTGCTCTTTGTTCAGATACA,2.4
21,GGGCTGGGGGCAGGGCTGGTCGGATGGCCG,-1.25
22,CCCACAATCAGTCTGATTGGTTGCAGAAGG,1.06
23,GGGCAATGACCTGGACAGGTCCAAGGTTCT,2.45
24,AGAGACTAGTATGTAAATAAGAGCTTTGCA,-1.13
25,AGAAATTGCGCTAACCAGATGGTAGATGGG,-0.943

row,Sequence,binding signal (log2 normalized intensity)
1,AGCAGCTTGAGGCTCCGATAAACCCAGGCA,-1.38
2,GCTTTTGCACTTTACTCAGAAAGGTCAGCG,3.54
3,ACCTTTGCTCACGTTTTCCTGCTGACCCTC,3.93
4,AATGTTTCAAAGTTTTTCCCCTTGGTGGAT,2.11
5,GCCGTTGGACCAAGCTCTAGCATCCCTCTC,-1.44
6,GACATGATCAAAGTTCATTGTAGCCTCAAA,3.81
7,GTAGGGCCAATCTCTGGCATGTATTTATCA,0.383
8,ATTTGATAAGATGTGTAAAACACAAATCTC,-1.13
9,CACAAAGGTGCAAAGTACATATTTACTTAC,4.08
10,AAAGAGATTGGACTTTGGCCTGTGAATCCA,9.05
11,GTCCCAAGCATCTCTGAGCAGTGAATGTTG,-0.929
12,ATTTTTATCTGTTTATTTTGCAATTAACAA,-1.14
13,TTCACACCATGCTCTAGTCTTCCTGTCTCC,-1.18
14,CCATTATCTCCTTAGGTACTTTTCTGTTTG,1.84
15,TAAGGGTGTTTGTCCTTTGTTGCAATGCTG,0.969
16,AAGATTGTTGAATACTTGGAGACAGTGAGA,0.311
17,CAGTATTTGGTGAGGCCCCAGTGTCAATTC,1.72
18,TTATCTAGACAAATTTGTTTACTTCTGTCT,1.23
19,CTCAGATGCCAGCTAAGATCAGTAGCTAGG,-1.26
20,CCCCAATACACACACACCCCTCCACTGGAC,3.78
21,AAAACATATTTGCATAATGGAGCAAAGGTC,6.3
22,CCTCGGTGGAGTTGACACAGACCTGCCTCT,-1.29
23,TCCTGTTCAACTATTCCTCGACCTTCGGCT,3.34
24,AATATAGGCCAGGCATACCTTTCTTATCAT,-1.22
25,TCTTATCTAGGTAAGTATAGTGGGAGGAGA,0.442

row,Sequence,binding signal (log2 normalized intensity)
1,GGCTGCGACCTGCTGGGCTGCATTCCCAGA,-1.33
2,AGCAGTCCCTTCCCCCCTCCTCATTGAGAG,4.38
3,CAGAGATCAAAAACCAAAGCTGGAGTGCAG,-0.858
4,CCAAGGTGCTAGCTCCGACTCAGTGGGGGG,-1.4
5,GTGGCCTGTGCCTGTAGTCCCAGCGACTTG,-1.21
6,CACATTGTAGCTAAAATGTTAATGATTACT,-0.906
7,CAGCGGCCGGAAAAAGTGAGGAGCAGCAGA,-1.22
8,CGGACGGGCTGCGGAGGCGACTGCAGATTG,-1.3
9,TTCCATTAACTGAACCTAGATTCCAGGAAG,0.602
10,TTCAGCAAATACTAATTCTCCCCCACCTGT,4.57
11,TTCTCCGGGTTCTGCGCAGGGAGGAGCGCA,-1.21
12,GTGCAAGGGAATGTAAGGCACTTTATCTAG,-0.923
13,ACTGGAATAAAGCAGTCCCTACTTCAAAGG,-1.2
14,CTGGGATCCAAAGTTCATGGAAAGTTTCAC,3.14
15,TACAAATTCCAAGGACTGAGATAAGAGAAG,-1.31
16,CTCCCTCTGAAGGGAGGGCCAAGCCCTCCA,-1.32
17,AGTGCAAAGGAGTCTGATTGTTGTGTGCCC,1.81
18,TGGCCATTTGGGAAACCGCGATTAAAAATG,-1.29
19,TTGAGGAGAGTCAAAGGTTAATGAGCCCCC,5.04
20,CCCCCTGCTCCAGGCCGGCTTGCGTCCCCA,3.17
21,AGCCTACCCACCCACACCTCCCCTTTGTTT,3.22
22,CTTTCTGCATCGCAGTCGCCTGCAAGACAA,-1.24
23,AAACTTTAGTAGTCCAAAGCTCAGATTGCC,1.79
24,GGATAGAATCAAAGGTCAGGAATCGCATTG,3.66
25,GTGTCTCCGAGATAAGGCGTCTTATCAGCC,-1.36

row,Sequence,binding signal (log2 normalized intensity)
1,GGTCTTTGCCCTTTCCTAGACGTAAGACAA,2.53
2,TGGGTTCTTGCCCTTTGGTCTGGAACACAG,4.41
3,TATCTCACTTATTTGTCATAATGCTCTTAT,1.56
4,ATAGCTACGGGTGACCTTGAGCACTAAAGA,1.03
5,ACTCCATCCTCACTTTAGGTGCTCTTGGCT,-1.24
6,TGAAAGTTCTCTGGGCTTTTTGATCTTGTC,1.25
7,AAATCACAATTTTCAAGAACAAACAAATTT,-0.984
8,ACGCACGGCAGAGCACCTGGATAAGCCAGA,-1.42
9,ACAGAAGAAGGAAAAGGCCTGACCTTTGCC,5.58
10,TGGTGTGGACAGCAGACAACTTTTCCTCTA,-1.35
11,AGTCCAAAGCTCAGATTGCCTAAAGGGGAT,-1.36
12,CATCTTTGAGCTGGATGACCTTTGTCCTGG,9.19
13,ATGGTTAGCACTCTGGACTCTGAATCCAGC,3.4
14,ACGCAGTCCCGCGTGGCCTTGTGGGAGCTG,-1.38
15,AGTGGCTTTGTTGATAACAAGTAAAATGAG,-0.132
16,TGTGTCTTTATAACAGACTGTAGGCTTGGA,1.52
17,TTTAAAGTGTAATTAAGGAAGATGGTGCAA,-1.29
18,AGGCTGAAGTGAAGTTACAAAGGTCACGCT,5.72
19,AAGCAGGACTTAAACACCAGTACTCTTTAA,-1.34
20,TTTGGAGTTTGACCTGGAGCCAGGGCCTTT,3.92
21,TAACAAGGCAAACTTTATCAAGACTGCAGC,-1.38
22,TACTGACTGAGAAACCAAGATCCTAGTCTT,-1.32
23,TGGTGCAAAGGTCAGGACAAGGCTCTGGTG,4.55
24,TATCAGACCAGCATTCTTTCTGCTGCAATT,-1.04
25,CTGTTTTCAAACACAGGATTGAACCTCTGG,3.05

row,Sequence,binding signal (log2 normalized intensity)
1,GGGTGGAAATCATCTCCATGCCGACTCCGA,-1.26
2,CAGACACACAGTCCACAGGCTATAGGGAAG,-1.35
3,GAGCATACATGCAGCTGAGAAAGAGAAAAT,-1.28
4,AGAATATTAGATGATAAGGGTGAAAAGATA,-1.2
5,GCTGGGTCAAAGTGTATGCATATTTTAAGT,2.27
6,GTGCAGCTGACCTACATTCCACCCTCATTT,0.796
7,ACGTCGAGCAGGCCCCGTCCCCGCCCCTTG,5.02
8,AGGCAAGAAGTATGACAACAAAGCATTATC,-1.49
9,TGACTTTACCTGAAATGAGACCAAAGTATT,0.577
10,ACTCTGAAGGAATGTAAACTCCAAGGAGCA,-1.44
11,ACTGCGAAAGATAAAAGGCCATAGGGAAAG,-1.22
12,CCCCTCTTTATCTCCTGGAATCCAAAGTAT,2.05
13,CCAGTGGTATGCCTCTGGGTGTCAGGGTTC,2.65
14,TTGAGTCCATCCCATCTTCCAGAAATGCCA,0.273
15,CGTGAGAAGAGGACTTTTTTTTGCCTAACT,-1.4
16,TGTGAGGATTGATTAGATAACATCTGGACT,2.52
17,AACCATACCTGGACAGCCTTTTTCAAGCAA,-1.21
18,CAGTTTCTTTAAGACAAGTGTCCCTCAAAC,0.83
19,TGGTGCCCTCTGAGTGTTTGACCTTTCACC,8.17
20,GGGCGGCCGGCGGAGCGCCGAGCAGGCACC,-1.36
